Experimental data: PubChem BioAssay (NCI)
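Five compound concentrations were applied to cells in 96-well plates for 48 hours; endpoints were derived by simple linear interpolation of the resulting dose-response curve. At the GI50, growth is halved. Definition used: TGI = concentration required for complete inhibition of growth.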 Bridge positions count the residues as written; N and C are the ends. Peptide text beside a SMILES is read from it. * marks the point of attachment. Cbz = O=C(OCc1ccccc1)*

System: NCI-H322M lung
Experiment: inhibition of tumour cell growth, NCI panel, 48 h

Row | SMILES | TGI | GI50
1 | Cc1cn([C@@H]2O[C@H](CO[Si](C)(C)C(C)(C)C)[C@]3(O[C@H]3C(=O)NO)[C@H]2O[Si](C)(C)C(C)(C)C)c(=O)[nH]c1=O | 3.16 µM | –
2 | C=C=C[P+](c1ccccc1)(c1ccccc1)c1ccccc1 | > 100 µM | –
3 | COc1cccc2c1nc(C(F)F)n2-c1nc(-c2ccc(NS(=O)(=O)CCN(C)C)cc2)nc(N2CCOCC2)n1 | 6.25 µM | 0.0923 µM
4 | Cc1cc(I)cc(CNCCN(C)C)c1O | > 100 µM | > 100 µM
5 | COC1=C(C(c2cc(OC)c(OC)c(OC)c2)c2cc3c(cc2OC)OCO3)C(=O)OC1 (stereo unspecified) | > 86 µM | –
6 | CCOC(=O)c1noc2c1CCc1c-2cn(Cc2ccc(OC)cc2)c1-c1cc(OC)c(OC)c(OC)c1 | > 100 µM | 5.47 µM
7 | O=C(O)c1ccc(N(/C=C/C(=O)C(F)(F)F)Cc2ccc(Cl)cc2)cc1 | 89.4 µM | 32.9 µM
8 | O=C(O)C(Cc1cc(I)c(O)c(I)c1)C1CCCCC1 (stereo unspecified) | > 100 µM | –
9 | Nc1c(C(=O)Nc2cccc(Cl)c2)sc2nc3c(cc12)C(=O)CCC3 | > 100 µM | –
10 | O=[N+]([O-])c1ccc(C2=NCCO2)cc1 | > 100 µM | > 100 µM
11 | O=S1OC(c2ccccc2)(c2ccccc2)C(c2ccccc2)(c2ccccc2)O1 | > 100 µM | –
12 | C=CCc1cccc(C=O)c1O | > 100 µM | > 100 µM
13 | CN(C)CCC(N)(P(=O)([O-])[O-])P(=O)([O-])[O-].N.N.[Pt+2] | > 100 µM | > 100 µM
14 | Cc1ccc(-c2n[nH]c(=O)n2/N=C\c2ccccc2O)cc1 | > 100 µM | –
15 | COc1ccc(C2=NN(C(N)=S)C(c3ccc4c(c3)OCO4)C2)cc1 (stereo unspecified) | 8.19 µM | 2.51 µM
16 | CC(C)(C)C(=O)/C=C(\OB(F)F)C(C)(C)C | > 100 µM | –
17 | CCNC1=C(NC(=O)c2ccc(F)cc2)C(=O)c2ccccc2C1=O | > 100 µM | –
18 | C[N+]1([O-])C2CCC1CC(OC(=O)C(CO)c1ccccc1)C2 (stereo unspecified) | > 100 µM | –
19 | ClC1=C(Cl)C(Cl)(C2(Cl)C(Cl)=C(Cl)C(Cl)=C2Cl)C(Cl)=C1Cl | 10.3 µM | 2.85 µM
20 | C[C@@H]1CN2[C@H]3[C@@H]1CC[C@]31CCC(=O)O[C@]1(C)[C@H]1CC[C@H]3CCC=C3[C@@H]12 | > 30 µM | > 30 µM
21 | N#CC(C#N)=c1c(=O)c2c3ccccc3cc3cccc1c32 | > 100 µM | –
22 | COCCN(C(=O)c1ccccc1)C1CCC2(SCCS2)c2[nH]c3ccccc3c21 (stereo unspecified) | > 100 µM | –
23 | C/C(=N/NC(=O)c1ccncc1)C(F)(F)F | > 100 µM | –
24 | CCCc1nnc2sc(COc3ccc(OCc4nn5c(CCC)nnc5s4)c(Cl)c3)nn12 | > 100 µM | –

Row | SMILES | TGI | GI50
25 | Nc1ccc(/C=C/c2ccc3ncccc3c2)cc1 | > 100 µM | > 100 µM
26 | CC(=O)CCC#Cc1ccccc1C(=O)C(C)=[N+]=[N-] | > 100 µM | –
27 | O=C(O)/C=C/c1ccc(O)c(O)c1 | > 100 µM | –
28 | NC1=C(O)c2cccc3cccc(c23)C1=O | > 100 µM | –
29 | COc1ccc(/C=C/C(=O)c2cc(OC)cc(OC)c2)cc1 | 16.5 µM | –
30 | CC(=O)C1(O)CC2(c3ccccc3)C(=O)C1(c1ccccc1)C(c1ccccc1)=C2c1ccccc1 (stereo unspecified) | > 100 µM | –
31 | Sc1cccc2cccnc12 | 11.9 µM | 1.49 µM
32 | O=C([CH-]C(=O)c1ccccc1)c1ccccc1.O=C([CH-]C(=O)c1ccccc1)c1ccccc1.O=C([CH-]C(=O)c1ccccc1)c1ccccc1.[Ga+3] | > 100 µM | > 100 µM
33 | CC(C)OC(=O)NCCn1cc(-c2ccccc2)nn1 | > 100 µM | –
34 | COC(=O)NC(=O)NC(Cc1ccccc1)NC(=O)OCc1ccccc1 (stereo unspecified) | > 100 µM | –
35 | Cn1cc(-c2ccc3nc(-c4ccc(CC(=O)Nc5cc(C(C)(C)C)no5)cc4)cnc3c2)cn1 | > 3 µM | 0.0164 µM
36 | N#Cc1cc2c(cc1C#N)SCCSCCCSCCS2 | > 82.4 µM | –
37 | O=C(NCc1cn(Cc2cccc(Oc3ccccc3)c2)nn1)c1cccnc1Nc1ccc(F)cc1 | > 100 µM | 29.9 µM
38 | CC(C)=CC[C@@H]1CC2(CC=C(C)C)C(=O)C(OC3(C(=O)c4ccccc4)C(=O)C4(CC=C(C)C)C[C@@H](CC=C(C)C)C(C)(C)C(CC=C(C)C)(C4=O)C3=O)(C(=O)c3ccccc3)C(=O)C(CC=C(C)C)(C2=O)C1(C)C (stereo partly specified) | 3.97 µM | 1.32 µM
39 | O=c1nc2n(-c3cccc(Cl)c3)c3ccc([N+](=O)[O-])cc3cc-2c(=O)[nH]1 | 19.7 µM | 8.32 µM
40 | COc1nc(NC2OC(COC(C)=O)C(OC(C)=O)C(OC(C)=O)C2OC(C)=O)c(N=CC=Nc2c(NC3OC(COC(C)=O)C(OC(C)=O)C(OC(C)=O)C3OC(C)=O)nc(OC)[nH]c2=O)c(=O)[nH]1 (stereo unspecified) | > 100 µM | –
41 | CN(Cc1cnc2nc(N)nc(N)c2n1)c1ccc(C(=O)NCCCS(=O)(=O)O)cc1 | > 100 µM | –
42 | Clc1ccc(Cc2nc3ccccc3o2)cc1 | > 100 µM | –
43 | O=c1[nH]c2ccccc2n1C1CCNCC1 | > 100 µM | > 100 µM
44 | CC[C@@H]1/C=C/C=C/C[C@H](C)[C@@H](O)[C@@H](C)C(=O)[C@H](C)[C@@H](O)[C@H](C)C(=O)[C@H](C)[C@@H](O)[C@H](C)/C=C/C(=O)O[C@H]2[C@@H](C)[C@@H](CC1)O[C@@]1(CC[C@@H](C)[C@@H](CC(C)O)O1)[C@@H]2C (stereo partly specified) | > 25 µM | –
45 | Cc1c2cnccc2c(C)c2c1c1ccccc1n2CCOC(=O)c1ccccc1 | > 80.4 µM | –
46 | C=CCN1C(=O)CC2[C@@H]3CCc4cc(O)ccc4C3CC[C@]2(C)C1=O (stereo partly specified) | > 10 µM | –
47 | CCCCn1c(=O)[nH]c(N)c([C@@H]2c3c([nH]c(=O)n(CCCC)c3=O)Oc3ccc4ccccc4c32)c1=O | 22 µM | 10.3 µM
48 | CCCCCCCCCCCCCCCCOCC(COP(=O)(O)OCC1OC(n2cc(CC)c(=O)[nH]c2=O)CC1O)OC(=O)CCCCCCCCCCCCCCC (stereo unspecified) | > 100 µM | –

Row | SMILES | TGI | GI50
49 | CC(=O)N1C=Cc2c(c(C)c3c([nH]c4ccccc43)c2C)C1 | 21.2 µM | –
50 | O=C1C2C3CC4C5C3C1C5C1(SCCS1)C42 (stereo unspecified) | > 100 µM | –
51 | CCN(Cc1ccc(OC)cc1)c1ccc(CO)c(Cl)c1 | 58.8 µM | 17 µM
52 | Cc1ccc2c(c1C)C(=O)C1(C2)Cc2ccc3c(c2C1=O)CCC3 (stereo unspecified) | > 100 µM | –
53 | Nc1ccccc1N | > 100 µM | –
54 | COc1ccc(-c2cc(N3CCN(c4ccc(Cl)cc4)CC3)c(C#N)c(=O)o2)cc1 | 3.06 µM | –
55 | CNC(=O)C1CCCCNC(=O)CCC(NC(=O)OCc2ccccc2)C(=O)N1 (stereo not drawn) (Cbz-Glu-Lys-NHMe; lactam 1-2; configuration not given here) | > 100 µM | –
56 | C=CC1(C)CCC2C(=CCC3C2(C)CC(O)C(O)C3(C)COC2OC(CO)C(O)C(O)C2O)C1 (stereo unspecified) | > 100 µM | –
57 | CC(=O)N1C/C(=C\c2ccccc2)C(=O)/C(=C/c2ccccc2)C1 | 33.4 µM | –
58 | Cc1nc2ccc(F)cc2c2c1CCS2 | > 100 µM | –
59 | Cc1ccc(S(=O)(=O)n2cc(/C=C/C#N)c(-c3cn(S(=O)(=O)c4ccc(C)cc4)cc3-c3cn(S(=O)(=O)c4ccc(C)cc4)cc3/C=C/C#N)c2)cc1 | > 100 µM | –
60 | C#CCOC(=O)C(N)CC(N)=O (stereo unspecified) | > 100 µM | –
61 | Cc1nnc2n1N=C(c1cc(F)c(Cl)cc1Cl)/C(=C/c1ccc(-c3ccc([N+](=O)[O-])cc3)o1)S2 | > 100 µM | –
62 | CN1C2CCC1/C(=C/c1cccc3c1OCO3)C(=O)/C2=C\c1cccc2c1OCO2 | > 100 µM | –
63 | O=C(O)c1cc(CCc2ccc(O)c(O)c2)ccc1O | > 100 µM | –
64 | O=c1c2ccccc2nc(-c2cccc([N+](=O)[O-])c2)n1O | > 100 µM | –
65 | O=P1(NCCCl)OCCCN1CCCl (stereo unspecified) | 445 µM | –
66 | Cc1cccc(Nc2nc3ccccc3nc2NS(=O)(=O)c2ccc(N)cc2)c1 | > 100 µM | –
67 | CC1(OCc2ccccc2)C(=O)N2C1NCC2(C)C (stereo unspecified) | > 100 µM | –
68 | C=CCC1(O)c2ccccc2C(=O)c2c(OCC(=O)OCC)ccc(OCC(=O)OCC)c21 (stereo unspecified) | > 100 µM | > 100 µM
69 | CC(=O)c1ccc(Br)cc1NC1=CC(=O)c2ncccc2C1=O | 1.9 µM | –
70 | COc1ccc(C(=O)C(C(=O)CCC(=O)Nc2ccc(Cl)c(Cl)c2)c2ccc(OC)cc2)cc1 (stereo unspecified) | > 100 µM | –
71 | CCN(CC)C(=O)CCn1ccc(=O)[nH]c1=O | > 100 µM | –
72 | CC(CN1NC12CCCC2)N1NC12CCCC2 (stereo unspecified) | > 100 µM | –

Row | SMILES | TGI | GI50
73 | CC(C)=CCC[C@@H](C)[C@H]1CC[C@@]2(C)[C@@H]3CC[C@H]4C(C)(C)[C@@H](O)CC[C@@]45C[C@@]35CC[C@]12C | > 100 µM | –
74 | O=c1[nH]c(=S)[nH]cc1CN1CCOCC1 | > 100 µM | –
75 | CN(C)c1cccc(-c2cc(=S)c3cc4c(cc3[nH]2)OCO4)c1 | > 100 µM | –
76 | COC(=O)[C@@H](C)C[C@H](Cc1ccccc1)NC(=O)c1nc([C@@H](C[C@H](C(C)C)N(C)C(=O)[C@@H](NC(=O)[C@H]2C[C@H](O)CCN2C)C(C)C)OC(C)=O)sc1C(C)C | > 11.1 µM | 0.037 µM
77 | COC(=O)N[C@H]1CCc2cc(OC)c(OC)c(OC)c2-c2ccc(SC)c(=O)cc21 | > 100 µM | < 0.01 µM
78 | COc1ccc(-c2nc3sc(-c4cc(OC)c(OC)c(OC)c4)nn3c2/C=C2/C(=O)Nc3ccc(F)cc32)cc1 | 7.99 µM | 2.74 µM
79 | O=C(CCc1nnc2s/c(=C\c3ccc([N+](=O)[O-])cc3)c(=O)n12)Nc1ccc(Cl)c(Cl)c1 | > 100 µM | –
80 | CN(C)CCNc1ccc(NCC[N+](C)(C)Cc2ccc([N+](=O)[O-])cc2)c2c1C(=O)c1c(O)ccc(O)c1C2=O | > 100 µM | –
81 | COc1ccc(-c2csc3c2-n2cccc2C3=O)cc1 | – | 0.233 µM
82 | CC(NCc1c(O)ccc2c(-c3ccccc3)cc(=O)oc12)C(=O)O (stereo unspecified) | > 100 µM | –
83 | COC(=O)/C=C1\SC2(OC1=Nc1ccccc1)C1CC3CC(C1)CC2C3 (stereo unspecified) | > 100 µM | –
84 | O=C(/C=C/c1ccccc1)NC1C=Nc2ccc([N+](=O)[O-])cc2NC1=O (stereo unspecified) | > 100 µM | –
85 | Cc1ccc(S(=O)c2ccccc2[N+](=O)[O-])cc1 (stereo unspecified) | > 100 µM | –
86 | O=C(Cc1ccccc1)NN1C(=O)C(Cl)C1c1ccc(Cl)cc1 (stereo unspecified) | > 100 µM | –
87 | COc1cc(CN=c2nc(N(C)C)ss2)cc(OC)c1OC | > 10 µM | –
88 | COCN1C(=O)[C@@H]2CCCN2C(=O)c2cc(OC)c(Cc3ccccc3)cc21 | > 100 µM | –
89 | COc1cc2c(c3oc(-c4ccc(O)cc4)c(O)c(=O)c13)CCC(C)(C)O2 | > 100 µM | 0.37 µM
90 | C/C(=C\C(=O)O[C@H]1[C@@H]2[C@H](C)CC[C@H]2[C@]2(C)O[C@@]1(C1CCCCC1)C[C@H]2OC(=O)CO)c1ccccc1 | 12.8 µM | 7.11 µM
91 | COc1cc(/C=C/C(=O)c2cccc(-n3cc(-c4ccccc4)[nH]c3=O)c2)cc(OC)c1OC | 7.73 µM | 2.02 µM
92 | O=C(CCc1n[nH]c(=S)o1)Nc1cc(Cl)ccc1Cl | > 100 µM | –
93 | CN1CCN(Cc2ccc(NC(=O)c3cncc(C#Cc4cnc(N)c5ncccc45)c3)cc2C(F)(F)F)CC1 | 15 µM | 0.406 µM
